Test results as given in PubChem BioAssay AID1460 (National Center for Advancing Translational Sciences (NCATS), 2008).
“And” between values parts separate entries of the source, which are not always exact repeats. Equal values may be shown once. Hit rate of the full screen: of about 270,000 compounds, about 5,800 (2.1%) were called active. The inconclusive results got no clear call from the source; some entries with a clear call stand among them for comparison. Calls come from the whole dose curve; as a rule, active = well fitted inhibition curve with a large enough effect; inconclusive = small, poorly fitted or top-dose-only effect; inactive = flat fitted curve, though single readings scatter. Where the call is inconclusive, the potency comes from a doubtful curve fit.

The compounds below were run against Microtubule-associated protein tau (Homo sapiens) (UniProt P10636) (assay: qHTS for Inhibitors of Tau Fibril Formation, Thioflavin T Binding). Conditions: recombinant tau K18 P301L, heparin-induced fibrillization, ThT fluorescence; series mostly up to 57.4 µM; activity, negative = inhibition: at the top concentration.
In short: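 Using a mix of unlabeled (15 uM) and Alexa 594-labeled (0.24 uM) tau K18 P301L, heparin-triggered fibrillization over 6 hr at 37 C was scored by ThT fluorescence.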
% is set by controls: 0 for no effect and ±100 for the full control effect; potency is the fitted concentration of half-maximal effect; tags give direction and shape of the fitted curve.
Note: nearly all actives have a fitted effect of over 55% in size.

Sequence of UniProt P10636 (P10636 whole entry, looked up): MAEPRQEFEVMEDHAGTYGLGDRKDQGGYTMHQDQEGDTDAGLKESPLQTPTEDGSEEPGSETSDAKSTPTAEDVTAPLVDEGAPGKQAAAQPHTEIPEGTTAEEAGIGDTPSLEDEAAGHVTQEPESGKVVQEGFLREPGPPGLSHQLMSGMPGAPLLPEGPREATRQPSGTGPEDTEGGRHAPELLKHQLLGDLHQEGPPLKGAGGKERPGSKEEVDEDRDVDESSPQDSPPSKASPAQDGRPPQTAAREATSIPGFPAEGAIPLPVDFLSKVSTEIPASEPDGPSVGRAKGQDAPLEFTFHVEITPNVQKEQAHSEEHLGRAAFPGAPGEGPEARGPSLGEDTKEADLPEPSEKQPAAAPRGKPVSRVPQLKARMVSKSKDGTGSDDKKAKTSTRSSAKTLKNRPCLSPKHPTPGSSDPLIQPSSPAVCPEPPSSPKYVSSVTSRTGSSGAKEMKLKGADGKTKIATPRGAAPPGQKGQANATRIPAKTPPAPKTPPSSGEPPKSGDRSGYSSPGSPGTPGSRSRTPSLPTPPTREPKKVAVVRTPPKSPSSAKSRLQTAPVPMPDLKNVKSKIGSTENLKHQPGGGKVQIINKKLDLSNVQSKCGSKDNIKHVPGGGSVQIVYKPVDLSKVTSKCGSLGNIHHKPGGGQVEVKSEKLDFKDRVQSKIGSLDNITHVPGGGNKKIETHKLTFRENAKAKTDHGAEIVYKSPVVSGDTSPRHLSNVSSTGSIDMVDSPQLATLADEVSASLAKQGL

Row | SMILES | Potency | activity, negative = inhibition
1 | Cn1c(Sc2ccc(Br)cc2)c(C=O)c2ccccc21 | inconclusive: 22.4 µM [inhibitor, partial curve] | –
2 | CCOc1ccc(N(CC(=O)N2CC=C(c3ccccc3)CC2)S(=O)(=O)c2c(C)noc2C)cc1 | inconclusive: 14.1 µM [inhibitor, partial curve, poor fit] | –
3 | O=C(COC(=O)C1CCN(S(=O)(=O)c2cccc3cccnc23)CC1)c1ccc([N+](=O)[O-])cc1 | inconclusive: 25.1 µM [inhibitor, partial curve] | –
4 | Cc1occc1C(=O)Nc1ccc2c(c1)OCCO2 | – | inactive: -1.42%
5 | O=C(NNC(=O)c1cc2cc3ccccc3nc2s1)c1cccc(C(F)(F)F)c1 | inconclusive: 3.98 µM [inhibitor, partial curve] | –
6 | Cc1nc(-c2cnn(-c3ccccc3)c2)c2cc(C)oc2n1 | inconclusive: 39.8 µM [activator, single point] | –
7 | Cc1c(/C(O)=C2/C(=O)C(=O)N(Cc3cccnc3)C2c2cccs2)cnn1-c1ccccc1 (centres undefined) | inconclusive: 11.2 µM [inhibitor, partial curve, poor fit] | –
8 | Cc1ccc(NC(=O)C(=O)NCCCN2CCOCC2)cc1C | – | inactive: -3.2%
9 | Cc1ccc2nc3c(cc(S(=O)(=O)c4ccccc4)c(=N)n3Cc3ccco3)c(=O)n2c1 | inconclusive: 20 µM [inhibitor, partial curve] | –
10 | COc1ccc2c(c1)c1nc3ccccc3nc1n2CCn1c(=O)oc2ccccc21 | inconclusive: 3.98 µM [inhibitor, full curve] | –
11 | COc1cc(C2C(C#N)=C(N)Oc3n[nH]c(C)c32)ccc1OC(=O)c1ccccc1 (centres undefined) | inconclusive: 14.1 µM [inhibitor, partial curve] | –
12 | O=c1cc2oc3cc(O)c(O)cc3c(-c3ccccc3O)c-2cc1O | active: 2.51 µM | –
13 | CCOc1ccc2nc(NCCNS(=O)(=O)c3ccccc3)c(C#N)cc2c1 | inconclusive: 28.2 µM [inhibitor, partial curve] | –
14 | Cc1nn(C(C)(C)C)c(OC(=O)c2cccc(F)c2)c1Sc1ccccc1 | inconclusive: 28.2 µM [inhibitor, single point] | –
15 | C=CCn1c(-c2csc(-c3ccc(Cl)cc3)n2)n[nH]c1=S | inconclusive: 0.631 µM [inhibitor, full curve] | –
16 | Cc1nn(CCc2n[nH]c(=S)n2-c2ccc(F)cc2)c(C)c1[N+](=O)[O-] | – | inactive: -6.25%
17 | CN1CCc2cccc3c2[C@@H]1Cc1ccc(O)c(O)c1-3 | active: 11.2 µM and active: 28.2 µM | –
18 | CCCSc1nnc2n(-c3ccc(OC)cc3)c(=O)c3c4c(sc3n12)COC(C(C)C)C4 (centres undefined) | inconclusive: 25.1 µM [inhibitor, single point] | –
19 | O=[N+]([O-])c1ccc(O)c(C=Nc2ccc3c(c2)OCO3)c1 | inconclusive: 35.5 µM [inhibitor, partial curve] | –
20 | CCOc1ccc(/C=C/c2nc3ccccc3n2S(=O)(=O)c2cccc(Cl)c2)cc1 | – | inactive: -9.2%
21 | CCOC(=O)c1c(-c2cccs2)csc1NC(=O)CC(C)C | – | inactive: -11.3%
22 | CCOC(=O)c1cc(-c2ccc(OC)cc2)n(CCC(=O)Nc2ccc(OC)cc2OC)c1C | inconclusive: 28.2 µM [inhibitor, single point] | –

Row | SMILES | Potency | activity, negative = inhibition
23 | CCOc1ccc(C(=O)Nc2ccc3nc(SCC(=O)N(C)c4ccccc4)sc3c2)cc1 | – | inactive: -5.36%
24 | CCOC(=O)c1nn(-c2ccc([N+](=O)[O-])cc2)cc1O | inconclusive: 22.4 µM [inhibitor, partial curve] | –
25 | Cc1ccc(Cl)cc1NC(=O)N1CCc2cc(S(=O)(=O)N3CCC(C)CC3)ccc21 | – | inactive: 2.36%
26 | CC(C)c1ccc(NC(=S)NCCc2c[nH]c3ccccc23)cc1 | inconclusive: 8.91 µM [inhibitor, partial curve] | –
27 | COc1cccc(C(=O)Nc2ccc(-c3nnc(-c4ccco4)o3)cc2)c1 | inconclusive: 10 µM [inhibitor, partial curve, poor fit] | –
28 | CCCc1cc(=O)[nH]c(SCC(=O)Nc2nc3ccc(OCC)cc3s2)n1 | inconclusive: 3.16 µM [inhibitor, single point] | –
29 | COc1ccc(N=Cc2cc(Cl)ccc2O)cc1Cl | inconclusive: 35.5 µM [inhibitor, single point] | –
30 | CC(=O)Nc1cccc(NC(=O)CSc2nnnn2C(C)C)c1 | – | inactive: -10.7%
31 | CN(C)CCNc1ncnc2c1sc1nc(-c3ccccc3)c3c(c12)CCCC3 | inconclusive: 2.51 µM [inhibitor, partial curve] | –
32 | O=C1c2cccc3cccc(c23)C(=O)N1OS(=O)(=O)c1ccccc1 | – | inactive: -22.7%
33 | CCOC(=O)C1(C)C=C(Nc2cccc(C)c2)C(=O)N1c1ccccc1 (centres undefined) | – | inactive: -3.56%
34 | Cc1ccc(CNC(=O)c2nc(S(=O)(=O)Cc3ccc(C)cc3)ncc2Cl)cc1 | inconclusive: 6.31 µM [inhibitor, partial curve] | –
35 | O=C(COc1ccc([N+](=O)[O-])cc1)N1CCN(c2nnc(-c3ccccc3)c3ccccc23)CC1 | inconclusive: 5.01 µM [inhibitor, full curve, poor fit] | –
36 | COc1ccc(NC(=O)CN(c2ccccc2OC)S(C)(=O)=O)c(OC)c1 | – | inactive: 0.879%
37 | CC(Sc1nnc(NCc2ccccc2)s1)C(=O)Nc1ccc2c(c1)C(=O)c1ccccc1C2=O (centres undefined) | inconclusive: 7.08 µM [inhibitor, partial curve] | –
38 | CCC/C=C(\CCC)C(NS(=O)(=O)c1ccc(C(F)(F)F)cc1)c1ccccc1 (centres undefined) | inconclusive: 44.7 µM [inhibitor, single point] | –
39 | COCCN(C(=S)Nc1ccccc1C)C(C)c1ccco1 (centres undefined) | – | inactive: -10.5%
40 | Fc1ccc(N=c2ssnc2Cl)c(F)c1 | active: 14.1 µM | –
41 | COC(=O)c1ccc(Nc2ncnc3c2cnn3-c2ccccc2)cc1 | inconclusive: 20 µM [activator, single point] | –
42 | COCCN=c1scc(-c2ccccc2)n1/N=C/c1c[nH]c2ccccc12 | active: 12.6 µM | –
43 | CCOc1ccccc1NC(=O)C1=C(C)Nc2ncnn2C1c1ccccn1 (centres undefined) | – | inactive: 2.33%
44 | CCOC(=O)C1=C(CN2CCSCC2)NC(=O)NC1c1cc(C)ccc1C (centres undefined) | inconclusive: 31.6 µM [inhibitor, single point] | –
